What all share (test): SPR (Biacore 3000), Fc fusion captured, ligand in solution
(In general: Surface plasmon resonance follows binding to a sensor surface in real time, without labels.)

One experiment deals with T1, Activin B (UniProt P09529 293-407).
T1 sequence (looked up): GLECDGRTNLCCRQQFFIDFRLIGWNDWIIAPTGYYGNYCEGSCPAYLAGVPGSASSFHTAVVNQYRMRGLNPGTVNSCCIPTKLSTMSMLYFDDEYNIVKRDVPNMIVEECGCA
The text has this:
(§1) The GE Biacore 3000 was used to measure the kinetics of the interactions between the ActRIIB-Fc variants and the ligands Activin A, Activin B, growth differentiation factor 11 (GDF11), and BMP-9. […] All other ActRIIB-Fc variants were expressed by transient expression in HEK293 cells and purified from the conditioned media using Protein-A Sepharose chromatography. Flow cells 1-4 were immobilized with anti-human/anti-mouse capture antibodies from GE using the amine coupling kit. The ActRII-Fc proteins were then captured on the chip in flow cells 2-4, with flow cell 1 being left empty as a reference cell to measure and subtract any nonspecific binding. HBS-EP+ buffer from GE Healthcare™ was used as a running buffer. Each ligand was run in a duplicate concentration series at 40 μl/min to avoid mass transport effects. All data was collected on a CM-5 chip except for GDF-11, which used CM-4. The data was analyzed using Scrubber2 by BioLogic™ Software to calculate the KD of each interaction (Table 4).

The target of experiment [1] is T2, growth differentiation factor 11 (GDF11) (UniProt O95390 299-407).
T2 sequence (looked up): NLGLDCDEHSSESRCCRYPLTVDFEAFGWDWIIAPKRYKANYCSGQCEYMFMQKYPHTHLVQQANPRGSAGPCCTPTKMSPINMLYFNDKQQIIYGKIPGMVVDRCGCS
Excerpt: as §1

For a further experiment, the target named is T3, BMP-9 (UniProt Q9UK05 320-429).
T3 construct: also called bone morphogenetic protein 9
T3 sequence (looked up): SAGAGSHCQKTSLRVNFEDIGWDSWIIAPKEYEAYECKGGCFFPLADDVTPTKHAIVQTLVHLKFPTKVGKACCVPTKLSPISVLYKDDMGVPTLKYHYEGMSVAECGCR
Excerpt: as §1

A further experiment concerns the target T4, Activin A (UniProt P08476 311-426).
T4 sequence (looked up): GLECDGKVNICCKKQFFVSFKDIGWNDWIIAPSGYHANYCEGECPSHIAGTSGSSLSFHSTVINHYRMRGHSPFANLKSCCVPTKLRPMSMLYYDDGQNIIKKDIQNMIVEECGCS
Excerpt: as §1

B1: ActRIIA (SEQ ID NO: 16)-Fc (Fc fusion, not shown: a dimerising Fc or GST)
chain: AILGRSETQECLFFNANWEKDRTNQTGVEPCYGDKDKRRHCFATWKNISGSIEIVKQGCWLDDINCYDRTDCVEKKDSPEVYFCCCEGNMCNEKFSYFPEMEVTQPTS
notes: Recombinant ActRII-Fc protein captured by anti-human/anti-mouse antibodies; also called ActRIIA-Fc
Usually Kd stands for a measure of binding affinity in units of concentration. As for B1, the Kd with Activin B is 0.37 nM; in experiment [1], 0.081 nM; in the experiment with BMP-9, 25 nM; with Activin A, 1 nM.

For the origin of these results see patent US20230087128A1 (KEROS THERAPEUTICS, published 2023).
